Experimental data as given in article PMC9911399, “Two distinct binding modes provide the RNA-binding protein RbFox with extraordinary sequence specificity”.
Positions count from the first letter of the chain named. This is one part of the list.

T1: RBFOX1 RRM RbFoxmut (Fox-RRM*) (Homo sapiens, UniProt Q9NWB1 109-208, R118D;E147R;N151S;E152T)
T1 sequence: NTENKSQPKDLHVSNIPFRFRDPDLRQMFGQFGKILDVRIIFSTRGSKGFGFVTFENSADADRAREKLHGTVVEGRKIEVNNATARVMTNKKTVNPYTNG

B1: GCCAUUC (DNA:RNA)
RNA: GGGAGACCGGAAUUCAGAUUGUCCGCCAUUCUUAAAUCCCGUCGUAGCCACCA
DNA 1: CAATCTGAATTCCGGTCTCCC
DNA 2: TGGTGGCTACGACGGGATT
B2: GAGAUGG (DNA:RNA)
RNA: B1 RNA with C26A, C27G, U30G, C31G
DNA 1: CAATCTGAATTCCGGTCTCCC
DNA 2: TGGTGGCTACGACGGGATT
B3: UUGCGGU (DNA:RNA)
RNA: GGGAGACCGGAAUUCAGAUUGUCCUUGCGGUUUAAAUCCCGUCGUAGCCACCA
DNA 1: CAATCTGAATTCCGGTCTCCC
DNA 2: TGGTGGCTACGACGGGATT
B4: AUUUAAG (DNA:RNA)
RNA: B3 RNA with U25A, G27U, C28U, G29A, G30A, U31G
DNA 1: CAATCTGAATTCCGGTCTCCC
DNA 2: TGGTGGCTACGACGGGATT
B5: CGUAUAC (DNA:RNA)
RNA: B1 RNA with G25C, C26G, C27U, U30A
DNA 1: CAATCTGAATTCCGGTCTCCC
DNA 2: TGGTGGCTACGACGGGATT
B6: ACAUCAG (DNA:RNA)
RNA: B1 RNA with G25A, C27A, A28U, U29C, U30A, C31G
DNA 1: CAATCTGAATTCCGGTCTCCC
DNA 2: TGGTGGCTACGACGGGATT
B7: GGGUGCC (DNA:RNA)
RNA: B1 RNA with C26G, C27G, A28U, U29G, U30C
DNA 1: CAATCTGAATTCCGGTCTCCC
DNA 2: TGGTGGCTACGACGGGATT
B8: GUGCAUA (DNA:RNA)
RNA: B3 RNA with U25G, G29A, G30U, U31A
DNA 1: CAATCTGAATTCCGGTCTCCC
DNA 2: TGGTGGCTACGACGGGATT
B9: AGGUCGU (DNA:RNA)
RNA: B3 RNA with U25A, U26G, C28U, G29C
DNA 1: CAATCTGAATTCCGGTCTCCC
DNA 2: TGGTGGCTACGACGGGATT
B10: GUCUGAC (DNA:RNA)
RNA: B1 RNA with C26U, A28U, U29G, U30A
DNA 1: CAATCTGAATTCCGGTCTCCC
DNA 2: TGGTGGCTACGACGGGATT
B11: CAAGUUU (DNA:RNA)
RNA: B1 RNA with G25C, C26A, C27A, A28G, C31U
DNA 1: CAATCTGAATTCCGGTCTCCC
DNA 2: TGGTGGCTACGACGGGATT
B12: GACAGCA (DNA:RNA)
RNA: B1 RNA with C26A, U29G, U30C, C31A
DNA 1: CAATCTGAATTCCGGTCTCCC
DNA 2: TGGTGGCTACGACGGGATT
B13: CAUGUGC (DNA:RNA)
RNA: B1 RNA with G25C, C26A, C27U, A28G, U30G
DNA 1: CAATCTGAATTCCGGTCTCCC
DNA 2: TGGTGGCTACGACGGGATT
B14: CGUCUCG (DNA:RNA)
RNA: B1 RNA with G25C, C26G, C27U, A28C, U30C, C31G
DNA 1: CAATCTGAATTCCGGTCTCCC
DNA 2: TGGTGGCTACGACGGGATT
B15: AGCCCGC (DNA:RNA)
RNA: B1 RNA with G25A, C26G, A28C, U29C, U30G
DNA 1: CAATCTGAATTCCGGTCTCCC
DNA 2: TGGTGGCTACGACGGGATT
B16: CUGGCCC (DNA:RNA)
RNA: B3 RNA with U25C, C28G, G29C, G30C, U31C
DNA 1: CAATCTGAATTCCGGTCTCCC
DNA 2: TGGTGGCTACGACGGGATT
B17: UACCUCG (DNA:RNA)
RNA: B1 RNA with G25U, C26A, A28C, U30C, C31G
DNA 1: CAATCTGAATTCCGGTCTCCC
DNA 2: TGGTGGCTACGACGGGATT
B18: GAGUCCU (DNA:RNA)
RNA: B3 RNA with U25G, U26A, C28U, G29C, G30C
DNA 1: CAATCTGAATTCCGGTCTCCC
DNA 2: TGGTGGCTACGACGGGATT
B19: ACUAACA (DNA:RNA)
RNA: B1 RNA with G25A, C27U, U29A, U30C, C31A
DNA 1: CAATCTGAATTCCGGTCTCCC
DNA 2: TGGTGGCTACGACGGGATT
B20: UCAGAAC (DNA:RNA)
RNA: B1 RNA with G25U, C27A, A28G, U29A, U30A
DNA 1: CAATCTGAATTCCGGTCTCCC
DNA 2: TGGTGGCTACGACGGGATT

Each binder was assayed against T1, RBFOX1 RRM RbFoxmut (Fox-RRM*) (assay: EMSA; HiTS-Eq, 1 nM pool, 10 min; buffer printed only for the single-RNA assays: 10 mM Tris pH 7.5, 150 mM NaCl, 3.4 mM EDTA, 0.001% NP-40, 30 C). Conditions: tags: His6 N-terminal (pET28a); label: 5' 32P.
Procedure, shortened: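 Purified RbFox RRM (wild type or mutant) was equilibrated for 10 min in 50 µL with 1 nM of a 5′-radiolabelled pool of RNA with 7 randomized nucleotides, its flanks annealed to DNA oligonucleotides, across increasing protein concentrations. Free RNA was separated by 8% native PAGE, excised, reverse-transcribed, PCR-barcoded and sequenced on an Illumina HiSeq 2500. Relative association constants came from read-count changes of each variant against the control reaction, normalised to the cognate motif.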
With B1 the binding signal was 0.0507 KA relative to UGCAUGU. B2 was tested, and the binding signal was 0.104 KA relative to UGCAUGU. In the case of B3, the binding signal is reported as 0.093 KA relative to UGCAUGU. In the case of B4, the binding signal is reported as 0.149 KA relative to UGCAUGU. For B5, the binding signal was 0.121 KA relative to UGCAUGU. In the case of B6, the binding signal is reported as 0.118 KA relative to UGCAUGU. With B7 the binding signal was 0.178 KA relative to UGCAUGU. With B8 the binding signal was 0.153 KA relative to UGCAUGU. For B9, the binding signal was 0.128 KA relative to UGCAUGU. With B10 the binding signal was 0.104 KA relative to UGCAUGU. For B11, the binding signal was 0.11 KA relative to UGCAUGU. In the case of B12, the binding signal is reported as 0.0964 KA relative to UGCAUGU. B13 was tested, and the binding signal was 0.139 KA relative to UGCAUGU. In the case of B14, the binding signal is reported as 0.162 KA relative to UGCAUGU. For B15, the binding signal was 0.0869 KA relative to UGCAUGU. In the case of B16, the binding signal is reported as 0.0909 KA relative to UGCAUGU. In the case of B17, the binding signal is reported as 0.107 KA relative to UGCAUGU. With B18 the binding signal was 0.0759 KA relative to UGCAUGU. With B19 the binding signal was 0.125 KA relative to UGCAUGU. With B20 the binding signal was 0.0854 KA relative to UGCAUGU.
